In all, about 43,000 compounds went through this assay and about 200 (0.47%) were called active. About 12% were inconclusive and are not listed. Calls come from the whole dose curve; as a rule, active = well fitted cell-killing curve with a large enough effect; inconclusive = small, poorly fitted or top-dose-only effect, or effect the other way; inactive = flat fitted curve, though single readings scatter. The list shows a part of the results.
Test: Cell viability qHTS assay in S16 Pmp22-F2sN cells; note: nearly all actives have a fitted effect of over 65% in size
Details: S16 Pmp22-F2sN Schwann cells viability, CellTiter-Glo, 24 h; series mostly up to 57.5 µM; activity change, negative = cytotoxicity: at the top concentration
Outline: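 Used to flag compounds lowering reporter output through toxicity, this quantitative HTS measures ATP-based CellTiter-Glo luminescence in S16 Pmp22-F2sN Schwann cells after 24 h compound exposure at 37C.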
% is set by controls: 0 for no effect and ±100 for the full control effect.

Structure (SMILES) | activity change, negative = cytotoxicity
Cc1cccc(C(=O)NCC(c2ccco2)S(=O)(=O)c2cccs2)c1 (configuration not stated) | inactive: -14.2%
Cn1c(=O)[nH]c2cc(-c3noc(-c4ccc(Br)cc4)n3)ccc21 | inactive: 3.08%
Cc1cccc(-c2nn3c(=O)cc(CN4CCN(C(=O)/C=C/c5ccccc5)CC4)nc3s2)c1 | inactive: -6.26%
CCC(C)c1ccc2oc(-c3ccc(NC(=O)c4cc5ccccc5o4)cc3)nc2c1 (configuration not stated) | inactive: -3.18%
CCCC(=O)Nc1nnc(S(=O)(=O)N(C)Cc2ccc(Cl)cc2)s1 | inactive: -1.86%
CC(C)c1ccc(S(=O)(=O)c2nnn3c2nc(N2CCCC2)c2sccc23)cc1 | inactive: 6.07%
Cc1cccc(Cn2c(=O)n3nc(-c4ccccc4)nc3c3ccccc32)c1 | inactive: -16.3%
COc1cc2c(C(=O)Nc3cc(OC)c(OC)c(OC)c3)cn(C)c(=O)c2cc1OC | inactive: 3.15%
COc1ccc(-c2c(C#N)c(SCC(=O)Nc3ccccc3C)nc(C)c2C(=O)Nc2ccc(Cl)cc2)cc1 | inactive: 2.73%
Cc1cc(O)c(C(c2cccc(F)c2)N2CCN(c3ccccc3)CC2)c(=O)n1Cc1ccco1 (configuration not stated) | inactive: -3.43%
COC(=O)c1c(NC(=O)CCCOc2cccc(C)c2)sc2c1CCC2 | inactive: -10.6%
Cc1ccc(C)c(CN2C(=O)c3ccccc3S(=O)(=O)c3ccc(C(=O)OCC4CCCO4)cc32)c1 (configuration not stated) | inactive: 11.9%
COc1ccc(NC(=O)Cn2c(SCc3ccc(C)cc3)nc3cccnc32)cc1OC | inactive: -18.3%
O=C1Nc2ccccc2Oc2cc(Oc3ccccc3)ccc21 | inactive: -2.98%
COc1ccc(Cn2c(CCC(=O)NCc3ccc(Cl)cc3)nc3cccnc32)cc1 | inactive: 1.18%
CCOC(=O)COc1ccc(C2C(C(=O)OC)=C(C)NC3=C2C(=O)c2ccccc23)cc1Cl (configuration not stated) | inactive: 1.37%
COc1cccc(CNC(=O)c2cnc3sc(N4CCCC4)nn3c2=O)c1OC | inactive: 11.9%
CCOC(=O)CC(NC(=O)CCc1c(C)nc2c(-c3ccccc3)c(C)nn2c1C)c1ccc(OC(C)C)cc1 (configuration not stated) | inactive: 4.94%
CSc1ccc(CCNC(=O)NCc2noc3ccccc23)cc1 | inactive: -2.34%
Cc1cccc(NC(=O)Cn2cc(C(=O)C3CCCCC3)c3ccccc32)c1 | inactive: 0.229%
CCOC(=O)c1cc(S(=O)(=O)Nc2cc(OC)ccc2OC)[nH]n1 | inactive: 18.6%
Cc1ccc(C(=O)NCC(c2ccc3c(c2)OCO3)N2CCOCC2)cc1C (configuration not stated) | inactive: -0.433%
COc1ccc(CNc2nc(-c3ccco3)nn2S(=O)(=O)c2ccc(Cl)cc2)cc1OC | inactive: 5.8%
O=C(CSc1cn(CC(=O)N2CCCC2)c2ccccc12)Nc1ccc(Cl)cc1 | inactive: -6.45%

Structure (SMILES) | activity change, negative = cytotoxicity
CC(C)c1ccc(CN(C(=O)c2cc3ccccc3oc2=O)C2CCS(=O)(=O)C2)cc1 (configuration not stated) | inactive: 7.4%
CCOCCn1ccc2c(OCC(=O)Nc3ccc(C(N)=O)cc3)cccc2c1=O | inactive: 9.9%
CCOC(=O)c1oc2ccc(S(=O)(=O)n3nc(-c4ccc(C)cc4)cc3N)cc2c1C | inactive: -11.9%
COc1ccc(NC(=O)C2CCN(S(=O)(=O)c3cccc(-c4noc(C)n4)c3)CC2)cc1OC | inactive: -3.61%
CCCc1nn2c(=O)cc(COC(=O)c3ccc(NC(=O)COc4ccc(F)cc4)cc3)nc2s1 | inactive: 9.48%
CN(C)c1ccc(CNC(=O)C2CCN(c3nc4ccccc4[nH]3)CC2)cc1 | inactive: 5.34%
Cc1cc(S(=O)(=O)N2CCN(Cc3noc(CCC(=O)N4CCCCC4)n3)CC2)ccc1F | inactive: -15.2%
COC(=O)c1cc2occc2n1Cc1nc(-c2ccccc2)oc1C | inactive: 3.02%
COc1ccc(C2NC(=O)N(C)C3=C2C(=O)N(c2ccc(Br)cc2)C3)cc1 (configuration not stated) | inactive: -12.6%
COc1ccc(NC(=O)C2=CC(c3ccco3)=NS(=O)(=O)N2C)cc1 | inactive: -11.8%
CCCCCn1c(=O)[nH]c2cc(C(=O)Nc3ccc(F)c(F)c3)ccc2c1=O | inactive: -3.72%
Cc1cc(SCC(=O)NCc2ccc(Cl)cc2)nc(=O)[nH]1 | inactive: -6.96%
Cc1ccc(S(=O)(=O)N2CCC(C(=O)NCc3ccccc3Cl)CC2)cc1 | inactive: -8.56%
Cc1ccccc1C(=O)Nc1cccc(OCc2cc(=O)n3c(C)csc3n2)c1 | inactive: 0.936%
CCN1CCN(Cc2c(O)ccc3c(C)c(-c4ccc(OC)cc4)c(=O)oc23)CC1 | inactive: -9.51%
Cc1cccc(NC(=O)c2cc(S(=O)(=O)NCCc3ccccc3)ccc2F)c1C | inactive: 6.6%
Cc1ccc(C)c(NC(=O)CN2CCSc3ccc(S(=O)(=O)N4CCCC4)cc32)c1 | inactive: 18.3%
COc1ccccc1N1CCN(c2ncnc3c2nnn3C)CC1 | inactive: -7.06%
Cc1ccc(C)c(NC(=O)Cn2c(=O)n(Cc3cccs3)c(=O)c3cccnc32)c1 | inactive: 11.8%
CC(C)(C)OC(=O)N1CCC(c2c(C(=O)N3CCN(c4ncccn4)CC3)cnn2-c2ccc(F)cc2F)CC1 | inactive: 9.75%
COc1ccc(-c2cn3nc(N4CCC(C(=O)Nc5cc(Cl)ccc5OC)CC4)sc3n2)cc1 | inactive: 26.4%
CCc1ccc(CNC(=O)Cc2c(C(=O)O)c(C)cn2C)cc1 | inactive: 0.124%
CCc1nnc(SCc2nc(-c3ccccc3)oc2C)c2cc3sccc3n12 | inactive: -0.899%

Source: PubChem BioAssay AID1508642 (National Center for Advancing Translational Sciences (NCATS), 2021)
